For the test, the target named is 4-1BB (human, UniProt Q07011). In words: cell-based or functional assay.

B1: 4-1BBL (ligand)
chain: not shown
B1: the “NF-kB-luciferase signal in single OKT3-stimulated Jurkat T cells” value came to 3.8 fold, the “expansion of CMV pp65-specific T cells restimulated with HLA-A*0201^+ pp65-transduced Caco-2 cells” value was 209 fold, the “expansion of P28z-transduced T cells stimulated weekly on LNCaP tumor monolayers” value came to 10 fold and the “expansion of Pz1^+ T cells cocultured weekly with LNCaP tumor monolayers” value was 1040 fold enrichment. Moreover, the “expansion of T cells stimulated weekly with plate-bound OKT3” value is 237 fold greater proliferation and the “in vivo expansion of Pz1^+ T cells in PC3-PSMA tumor bearing mice (bioluminescence)” value was 41 fold higher photon count.

Source of the values: patent publication US20160008398A1, “CONSTITUTIVE EXPRESSION OF COSTIMULATORY LIGANDS ON ADOPTIVELY TRANSFERRED T LYMPHOCYTES” (Memorial Sloan-Kettering Cancer Center, published 2016).
